# Reference: the supplement of paper PMC3334620
# Over roughly 33,000 sequences, “E-score (-0.5 to 0.5)” has its median near -0.017; the highest 2% begin near 0.3. Some of the results follow.
# Target: T1, Sut1 (UniProt P53032)
# T1 sequence: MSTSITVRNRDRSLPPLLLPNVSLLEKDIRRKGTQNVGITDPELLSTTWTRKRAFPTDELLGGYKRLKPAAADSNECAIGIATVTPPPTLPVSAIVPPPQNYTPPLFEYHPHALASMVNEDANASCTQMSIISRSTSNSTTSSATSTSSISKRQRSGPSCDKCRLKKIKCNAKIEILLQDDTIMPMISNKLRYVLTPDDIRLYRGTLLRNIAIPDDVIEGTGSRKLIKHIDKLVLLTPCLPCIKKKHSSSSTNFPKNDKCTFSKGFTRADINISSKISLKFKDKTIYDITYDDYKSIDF
# Test: PBM E-score (8-mer binding enrichment) (E-score (-0.5 to 0.5)); higher = stronger / more preferred TF binding; most listed sequences are background and not binding sites
# Details: protein concentration: 200 nM; construct: GST-full length
# In short: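 Each ungapped eight-base word and its reverse complement, pooled, received an E-score from the Universal PBM Analysis Suite. Underlying scans, normalised with masliner, recorded fluorescent anti-GST bound to GST-tagged yeast transcription factors. These were applied at about 100-200 nM to universal all-10-mer Agilent arrays double-stranded by primer extension.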
row,Sequence,PBM E-score
1,AGGTCGGG,-0.149
2,GAGAGTAA,0.147
3,ACCACGCT,-0.135
4,ATAGGTTG,-0.0917
5,TCACATAA,0.0806
6,ACAATGTA,0.0677
7,ATCGTTAC,0.0774
8,GCCCGAGC,0.0318
9,ATAAAATC,0.162
10,ACGAGGTG,-0.21
11,AGTCACTA,0.0936
12,GCAATACA,0.196
13,CAAGATGC,0.109
14,ATATGCTG,-0.104
15,GCCCGTTA,-0.197
16,CCCCCATA,-0.324
17,GCTTCGTA,0.0454
18,CATCAGGC,-0.0777
19,ACATCGCA,-0.067
20,CAAGTATC,0.0559
21,ACGGGCGC,-0.205
22,AAGCGCTA,0.176
23,AATTAACT,0.237
24,AAGCGTAT,-0.119
25,CTCTACGC,-0.155

row,Sequence,PBM E-score
1,CGCGGGCA,0.0742
2,CCTCGCCG,-0.338
3,CAGCCTAC,-0.0545
4,CAAACTGC,0.0384
5,GCCCCTAA,-0.251
6,AGCACGTA,0.0175
7,CAGTGTGG,-0.124
8,GATACGCC,-0.129
9,ACGCGTAC,-0.00813
10,AAAGTCAG,0.00828
11,CTTACGAC,-0.189
12,CGCATTAG,-0.174
13,CGTGCGAG,-0.0295
14,AAAACAAG,0.0776
15,CAGATTAA,0.202
16,AACCGTAA,0.035
17,GTCTGAAA,0.0321
18,ACCCGCCA,-0.175
19,AGACCCAG,-0.287
20,GTCTACAA,-0.00497
21,AGCTGCCG,0.0639
22,ACCCCAGA,-0.235
23,GAATAATC,0.118
24,CTCGGACC,0.368
25,AAGGACGG,-0.195

row,Sequence,PBM E-score
1,ACAAGCAA,0.0908
2,CGATGTAC,-0.0815
3,CCGTTCCG,0.134
4,CTAAGCGC,-0.136
5,CAGCCTGC,-0.224
6,CCTTGCTC,-0.173
7,CAAAGCGA,0.0222
8,CATGATAG,0.0908
9,CGAACTTC,0.0646
10,ATGCACAC,-0.0762
11,AATTCGTG,-0.0661
12,ATGGTACG,0.0767
13,GGTCTCAC,-0.108
14,AAGGGTGT,-0.0326
15,AGATTAAT,0.222
16,CCCACGGA,0.152
17,CTTTGTTC,0.0286
18,AATACGGA,0.286
19,GGCGCCTA,-0.227
20,TAGAGCTA,-0.227
21,AACGAGAG,0.0646
22,ACCGGCCT,-0.185
23,AACCTTGA,0.116
24,CGCCGGAA,0.132
25,GACACCAA,-0.0326

row,Sequence,PBM E-score
1,CTGTCCCC,-0.214
2,CGCCCTAA,-0.166
3,ATAATCTA,0.262
4,GGCGTCCC,-0.27
5,ATAAGACC,0.151
6,CAGCCAGC,-0.131
7,GTCTTAAA,0.00721
8,CACGAAAG,-0.0298
9,AGTGAACC,-0.0366
10,ACCGCGCC,-0.133
11,CATACGTC,-0.0138
12,CTTTAATC,0.183
13,CAAGGGAA,-0.215
14,GACTGTCA,0.00156
15,TATAGCAA,0.186
16,CAGAAGTC,-0.188
17,AAATCTAT,0.219
18,GCCCATAC,-0.182
19,TGGCGGAA,-0.0601
20,TCCCCCAA,-0.237
21,CTGTGATC,0.101
22,GGATTTAA,0.224
23,ACCGGAAA,0.268
24,CAGAGCAA,0.0158
25,CCGGAACC,0.185

row,Sequence,PBM E-score
1,CTGGTGCA,-0.255
2,CATGACTC,0.0183
3,ATCCCCGC,-0.0529
4,AAGCCAGG,-0.253
5,GATTATAC,0.0252
6,ATAGGTGA,0.0709
7,TGCTGCAA,0.0933
8,CCGACCAG,-0.0779
9,CTACTCGC,-0.13
10,CTAGTGTA,-0.072
11,AAAAACCC,0.181
12,TCGGCGCA,-0.085
13,GCAGCTGC,-0.14
14,GATGCTCC,0.17
15,CCTAGAGA,-0.134
16,CCTACGAG,-0.172
17,AGATGCTG,-0.143
18,GAAAGGTA,0.193
19,GCGTGCCC,-0.326
20,CTATCAAA,0.168
21,TCAAGCCA,-0.0353
22,CCCCGAGC,0.163
23,CTCCGGGC,0.391
24,TCTTGTAA,0.163
25,CACCTGGA,-0.119

row,Sequence,PBM E-score
1,CTCGGTTA,0.0486
2,ACGGAAGG,-0.0622
3,AACATAAC,0.163
4,CCGATTAG,0.103
5,CCATTTAG,-0.15
6,ATCCTGGG,-0.275
7,CCACCCTA,-0.0533
8,GGGCGCCA,-0.158
9,GACTCGGA,0.33
10,CCATTTCG,-0.0685
11,CGAAAGTA,-0.0665
12,CTTACTTC,0.167
13,GGTCTGAC,-0.161
14,CTGTCCAA,-0.0138
15,GGGCATAC,-0.187
16,CGTTTTTA,0.169
17,CTAAAGGC,-0.139
18,CCTAGTGA,-0.11
19,ATTCAGAC,-0.0431
20,CTCTGTCA,-0.157
21,ACTGGTAT,-0.143
22,ACTCGACA,0.0249
23,CTTTATAA,0.135
24,ACAATTGC,0.0567
25,CGGCGTAG,-0.176

row,Sequence,PBM E-score
1,ACATTTAC,0.168
2,CTACGATC,-0.00632
3,ACCGGGTC,-0.165
4,CGCTACGC,-0.122
5,ACGCTCAT,-0.0514
6,ATTTCGGG,0.0466
7,AAAGGGAC,-0.202
8,GGTCTGCA,-0.0604
9,GGTCCCCA,-0.133
10,GTTGAACA,-0.0558
11,TAAGAAAA,0.262
12,CGTTCCAA,0.106
13,CCACAAAC,0.0626
14,GCCCGTAC,-0.215
15,AGCCCTCA,-0.247
16,AAACTAGG,0.0814
17,CTCAAAAA,0.054
18,TTCGGCAA,0.0822
19,CAGATGCG,-0.162
20,GTTTCATA,0.0407
21,AACTTCGG,0.294
22,CGCAACGA,0.0591
